# Measurements reported in PubChem BioAssay AID526 (National Center for Advancing Translational Sciences (NCATS), 2006).
# Hit rate of the full screen: of about 67,000 compounds, fewer than 10 were called active. Inconclusive means that the source gave no clear call. Such entries were picked first, then a sample of the others. Calls come from the whole dose curve; as a rule, active = well fitted activation curve with a large enough effect (not every such curve was filed as active); inconclusive = small, poorly fitted or top-dose-only effect, or another doubt; inactive = no such curve, though single readings can be large or run the other way.
# Test: Ubiquitin-GFP Assay
# Conditions: Ubiquitin-GFP reporter cells, proteasome inhibition, GFP fluorescence, untreated = 0%, 10 µM MG-132 = 100%; at 45.9 µM (top of the series) unless noted
# Text: NIH Chemical Genomics Center [NCGC]
# NIH Molecular Libraries Screening Centers Network [MLSCN]
# The ubiquitin-proteasome pathway is present within all eukaryotic cells and plays roles in normal cellular functions and disease-related dysfunction. Proteins are tagged with a poly-ubiquitin chain that targets them for the proteasome, a multimeric protease, that degrades the protein into peptides and free ubiquitin. The proteasome has a key role in regulating cell cycle and growth and is known to control the levels of cyclins and CDK inhibitors as well as tumor suppressor proteins. Additionally, the activation of NF- B is controlled by ubiquitin-labeling and degradation of the inhibitory protein I B . […] With this in mind, proteasome inhibitors such as MG-132 and PS-341 have been used to inhibit tumor cell growth.
# A cellular assay for ubiquitin-proteasome function was used to find chemical probes of this pathway. The assay used an ubiquitin-GFP construct expressed in U2OS cells (BioImage). Under basal conditions little GFP can be detected as it is degraded by the proteasome. However, treatment of the cells with a proteasome inhibitor such as MG-132 results in a rise in GFP levels that can be detected in as little as four hours. We used the Acumen-Explorer laser plate cytometer having a 488 nm laser as an excitation light source to detect the GFP. Compounds were screened in 1536-well plates using qHTS with a concentration-titration series range that varied from 46 uM to 2.9 nM.
# NCGC Assay Protocol Summary:
# Cells (U20S ps 2042) expressing ubiquitin (G76V-GFP) were maintained in DMEM with Glutamax-1 and high glucose, 10% FBS, 1% (v/v) penicillin-streptomycin, 0.5 mg/mL Geneticin (G418). The cells were seeded in 1536-well plates using a solenoid-based dispenser at 700 cells/5ul in DMEM medium with Glutamax-1 and high glucose containing 0.5% FBS, w/o phenol red, 25 mM HEPES. The plates were incubated at 37 °C/5% CO2 overnight. Then 23 nl of MG-132 in DMSO was added to the control wells at a final concentration of 10 uM. Next, 23 nL of library compounds in DMSO were added to the sample wells. The plates were incubated for 4 hrs at 37 °C/5% CO2. Following this incubation the plates were read on the Acumen using a cell object definition of 15 to 100 um in width and depth and a window of Total Intensity of between 77,200 and 2,720,000 FLU to enumerate GFP-expressing cells.
# The %Activity was determined from the basal and MG-132 treated control wells. %Activity was determined by normalizing to the difference in signal between basal cells (0% Activity) and cells incubated with 10 uM of the proteasome inhibitor MG-132 (100% Activity). Concentration-response curves were fitted to the signals arising from the GFP fluorescence.
# Assay Protocol Summary Table
# Sequence Parameter Value Description
# 2. Time O/N 37C incubation
# 4. Compound 23 nL Libraries (46 uM to 2.9 nM)
# 5. Time 4 hr 37C incubation
# 6. Detector Acumen Total Intensity, GFP fluorescence (488 ex/515 em)
# Keywords: NIH Roadmap, MLSCN, MLI, MLSMR, BioImage, proteasome, ubiquitin-GFP, qHTS, NCGC
row,Structure (SMILES),activation (GFP accumulation)
1,CC1(C)C(c2ccccc2)=NC(c2cccnc2)N1O (stereo not given),inconclusive: 4.29% [activator]
2,O=c1c2ccccc2nc(-c2ccccc2)n1-n1cccc1,inconclusive: -1.97% [activator]
3,CCCC(C)C(=O)NC1CCSC1=O (stereo not given),inconclusive: -4.55% [activator] [at 9.17 µM]
4,CSC([N-]/N=C/c1cccc(C)n1)=[S]=[Cu].CS[C@H]([S-])[N-]/N=C/c1cccc(C)n1,inactive: 5.5% [at 9.17 µM]
5,C[C@@H]1O[C@@H](O[C@H]2C[C@@H](O)[C@]3(CO)[C@@H]4[C@@H](O)C[C@]5(C)[C@H](C6=CC(=O)OC6)CC[C@@]5(O)[C@H]4CC[C@@]3(O)C2)[C@H](O)[C@H](O)[C@@H]1O,inactive: 0.23%
